The other results are listed elsewhere or left out. These are further read-outs of the screen, such as a control signal, another cell line or another target. No call is given for them.
Key:
Experiment in all cases: Primary Screen for Target Class Profiling of Small Molecule Inhibitors of Methyltransferases
[1] = molecular target: Glycine N-methyltransferase (Homo sapiens) (UniProt Q14749); settings: purified enzyme, MTase-Glo SAH luminescence; measured here: GNMT inhibition; at 40 µM; stronger effect = lower value
Procedure, shortened: (§1)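 Each enzyme was assayed with SAM and its substrate. SAH formation detected by MTase-Glo luminescence; single-point 40 uM screen[…].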

[2] = molecular target: Guanidinoacetate N-methyltransferase (Homo sapiens) (UniProt Q14353); settings: purified enzyme, MTase-Glo SAH luminescence; measured here: GAMT inhibition; at 40 µM; stronger effect = lower value
Procedure, shortened: as §1

[3] = molecular target: Histamine N-methyltransferase (Homo sapiens) (UniProt P50135); settings: purified enzyme, MTase-Glo SAH luminescence; measured here: HNMT inhibition; at 40 µM; stronger effect = lower value
Procedure, shortened: as §1

[4] = molecular target: Nicotinamide N-methyltransferase (Homo sapiens) (UniProt P40261); settings: purified enzyme, MTase-Glo SAH luminescence; measured here: NNMT inhibition; at 40 µM; stronger effect = lower value
Procedure, shortened: as §1

[5] = molecular target: Phenylethanolamine N-methyltransferase (Homo sapiens) (UniProt P11086); settings: purified enzyme, MTase-Glo SAH luminescence; measured here: PNMT inhibition; at 40 µM; stronger effect = lower value
Procedure, shortened: as §1
On the % scale 0 is the no-effect control and ±100 the full control effect.

Row | Compound | activity change, negative = inhibition [1] [%] | activity change, negative = inhibition [2] [%] | activity change, negative = inhibition [3] [%] | activity change, negative = inhibition [4] [%] | activity change, negative = inhibition [5] [%]
1 | O=C(CSc1nnc2n(CCc3ccccc3)c(=O)c3ccccc3n12)Nc1ccc2c(c1)OCO2 | 0.326 | 2.26 | 7.17 | -4.59 | 2.85
2 | O=C(Cn1ccnc1)N1CCC(N2C(=O)C3(CCCC3)C2c2ccccc2)CC1 (stereo not given) | 0.026 | 2.95 | -0.998 | -8.12 | 13.4
3 | CC(=O)O[C@H]1C[C@H](OC(C)=O)[C@]2(C)[C@H](CC[C@@]34O[C@@H]3C3=C(C)C(=O)O[C@@H]3C[C@H]42)C1(C)C | -2.21 | -0.165 | 2.38 | -8.02 | -8.48
4 | O=C(NCc1ccccc1)C1CCN(c2cnc3nccnc3c2)CC1 | -4.79 | 3.16 | 0.312 | -4.23 | 11.8
5 | Cc1ccc(NC(=O)Cn2nc3nc(Nc4ccc(C)cc4)ccn3c2=O)cc1 | -2.48 | 4.65 | -6.84 | -4.32 | -4.91
6 | CC(=O)OC1C(O)/C(C)=C\C2C(OC(=O)c3ccccc3)C(C)CC2(OC(C)=O)C(OC(C)=O)C(C)/C=C/C(C)(C)C1OC(C)=O (stereo not given) | -4.14 | -9.25 | 5.64 | -26.2 | 1.16
7 | COc1ccccc1N1CCN(CCCCNC(=O)c2ccc3ccccc3c2)CC1 | 11.4 | 14.7 | -0.892 | -9.8 | -2.05
8 | CCOC(=O)c1cc2n(n1)CC(C)(C(=O)NCCC(C)C)N(c1ccc(Cl)cc1C)C2=O (stereo not given) | -3.34 | 0 | 3.06 | 4.58 | -3.45
9 | CN1C(=O)c2cc3ccccc3n2CC1(C)C(=O)NCC(=O)NCc1cccc(Cl)c1 (stereo not given) | 0.688 | 0 | 0.74 | 7.29 | -1.75
10 | CN(C)C[C@@H]1CN(c2ncccn2)C[C@H]1NS(=O)(=O)c1ccc(Cl)cc1 | -7.25 | -11.8 | -2.57 | -10.3 | -6.76
11 | C[C@]1(CO)CN(c2cc(C(=O)Nc3ccc4c(c3)-c3c(c(C(N)=O)nn3-c3ccc(F)cc3)CC4)c(Cl)cn2)C[C@@]1(C)CO | -14.6 | -5.07 | -7.95 | -24.1 | -8.41
12 | C1CCN2CC3C[C@@H](CN4CCCC[C@@H]34)[C@H]2C1 | 2.89 | 4.9 | -14.6 | -8.06 | 3.38
13 | CSc1ccc(C(=O)N2C[C@@H](CN3CCN(C)CC3)[C@@H](CO)C2)cc1 | -6.63 | -5.34 | -5.74 | -10 | 1.4
14 | COc1ccccc1C(=O)N1CCC2(C1)C(=NC1CCCCC1)NC(=O)N2c1cc(F)cc(F)c1 (stereo not given) | -5.22 | -3.25 | -2.5 | -6.67 | -1.47
15 | CC1(C(=O)NC2CCCCCC2)Cn2c(cc3occc32)C(=O)N1CCCN1CCCCCC1 (stereo not given) | -4.73 | -2.66 | -8.52 | -4.42 | -3.71
16 | Cc1n[nH]c(C)c1Cc1sc2c(c1C(=O)N1C[C@H](O)CO1)c(=O)n(C)c(=O)n2CC(C)C | -8.57 | -24.8 | 4.5 | -24.5 | -5.07
17 | COCC(=O)N[C@H]1CCN(C(=O)COC)[C@H](C(=O)N[C@H](Cc2c[nH]c3ccccc23)C(N)=O)C1 | -3.19 | -4.76 | -1.09 | -14.1 | 6.34
18 | C/C=C1/[C@H](O[C@@H]2O[C@H](CO)[C@@H](O)[C@H](O)[C@H]2O)OC=C(C(=O)OC)[C@H]1CC(=O)OCCc1ccc(OC(=O)C[C@@H]2C(C(=O)OC)=CO[C@@H](O[C@@H]3O[C@H](CO)[C@@H](O)[C@H](O)[C@H]3O)/C2=C/C)cc1 | -1.04 | 2.08 | 9.09 | -10.4 | 6.89

Reference: PubChem BioAssay AID1745853 (National Center for Advancing Translational Sciences (NCATS), 2022)
